Source: the supplement of paper PMC8728848
This is one part of the list.

Experiments:
Experiment in all cases: glycan array binding signal (z-score within array); higher = stronger binding
Settings in all cases: glycan notation: IUPAC condensed, linker removed
[1] = molecular target: Neu5Ac(a2-6)GlcNAc(b1-4)GlcNAc(b1-4)GlcNAc
Summary of the method: (§1)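 Arrays were curated from the Consortium for Functional Glycomics database, 3228 in total, and kept only where the protein sequence was available. Binding is expressed as a within-array Z-score. This score was averaged across arrays of the same protein sequence at different concentrations or buffers and across linkers, and negative values can be read as non-binding.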

[2] = molecular target: Neu5Ac(a2-8)Neu5Ac
Summary of the method: as §1

[3] = molecular target: Neu5Ac(a2-8)Neu5Ac(a2-3)Gal(b1-3)GalNAc(b1-4)[Neu5Ac(a2-3)]Gal(b1-4)Glc
Summary of the method: as §1

[4] = molecular target: Neu5Ac(a2-8)Neu5Ac(a2-3)Gal(b1-3)GalNAc(b1-4)[Neu5Ac(a2-8)Neu5Ac(a2-3)]Gal(b1-4)Glc
Summary of the method: as §1

[5] = molecular target: Neu5Ac(a2-8)Neu5Ac(a2-3)Gal(b1-4)Glc
Summary of the method: as §1

[6] = molecular target: Neu5Ac(a2-8)Neu5Ac(a2-3)Gal(b1-4)GlcNAc
Summary of the method: as §1

[7] = molecular target: Neu5Ac(a2-8)Neu5Ac(a2-3)[Gal(b1-3)GalNAc(b1-4)]Gal(b1-4)Glc
Summary of the method: as §1

[8] = molecular target: Neu5Ac(a2-8)Neu5Ac(a2-3)[GalNAc(b1-4)]Gal(b1-4)Glc
Summary of the method: as §1

[9] = molecular target: Neu5Ac(a2-8)Neu5Ac(a2-8)Neu5Ac
Summary of the method: as §1

[10] = molecular target: Neu5Ac(a2-8)Neu5Ac(a2-8)Neu5Ac(a2-3)Gal(b1-4)Glc
Summary of the method: as §1

[11] = molecular target: Neu5Ac(a2-8)Neu5Ac(a2-8)Neu5Ac(a2-3)[Gal(b1-3)GalNAc(b1-4)]Gal(b1-4)Glc
Summary of the method: as §1

[12] = molecular target: Neu5Ac(a2-8)Neu5Ac(a2-8)Neu5Ac(a2-3)[GalNAc(b1-4)]Gal(b1-4)Glc
Summary of the method: as §1

[13] = molecular target: Neu5Ac(a2-8)Neu5Ac(a2-8)Neu5Ac(a2-8)Neu5Ac(a2-3)[GalNAc(b1-4)]Gal(b1-4)Glc
Summary of the method: as §1

[14] = molecular target: Neu5Ac(a2-8)Neu5Gc(a2-3)Gal(b1-4)GlcNAc
Summary of the method: as §1

[15] = molecular target: Neu5Ac(b2-6)Gal(b1-4)GlcNAc
Summary of the method: as §1

[16] = molecular target: Neu5Ac(b2-6)GalNAc
Summary of the method: as §1

[17] = molecular target: Neu5Ac9Ac(a2-3)Gal(b1-3)GlcNAc
Summary of the method: as §1

[18] = molecular target: Neu5Ac9Ac(a2-3)Gal(b1-4)GlcNAc
Summary of the method: as §1

[19] = molecular target: Neu5Ac9Ac(a2-6)Gal(b1-4)GlcNAc
Summary of the method: as §1

[20] = molecular target: Neu5Gc(a2-3)Gal(b1-3)GlcNAc
Summary of the method: as §1

[21] = molecular target: Neu5Gc(a2-3)Gal(b1-3)[Fuc(a1-4)]GlcNAc
Summary of the method: as §1

[22] = molecular target: Neu5Gc(a2-3)Gal(b1-4)Glc
Summary of the method: as §1

[23] = molecular target: Neu5Gc(a2-3)Gal(b1-4)GlcNAc
Summary of the method: as §1

[24] = molecular target: Neu5Gc(a2-3)Gal(b1-4)GlcNAc(b1-3)Gal(b1-4)GlcNAc(b1-2)Man(a1-3)[Neu5Gc(a2-3)Gal(b1-4)GlcNAc(b1-3)Gal(b1-4)GlcNAc(b1-2)Man(a1-6)]Man(b1-4)GlcNAc(b1-4)GlcNAc
Summary of the method: as §1

[25] = molecular target: Neu5Gc(a2-3)Gal(b1-4)[Fuc(a1-3)]GlcNAc
Summary of the method: as §1

[26] = molecular target: Neu5Gc(a2-6)Gal(b1-4)GlcNAc
Summary of the method: as §1

[27] = molecular target: Neu5Gc(a2-6)GalNAc
Summary of the method: as §1

[28] = molecular target: Neu5Gc(a2-8)Neu5Ac(a2-3)Gal(b1-4)GlcNAc
Summary of the method: as §1

[29] = molecular target: Neu5Gc(a2-8)Neu5Gc(a2-3)Gal(b1-4)GlcNAc
Summary of the method: as §1

[30] = molecular target: Neu5Gc(a2-8)Neu5Gc(a2-3)Gal(b1-4)GlcNAc(b1-3)Gal(b1-4)GlcNAc
Summary of the method: as §1

[31] = molecular target: Neu5Gc(a2-8)Neu5Gc(a2-6)Gal(b1-4)GlcNAc
Summary of the method: as §1

[32] = molecular target: Neu5Gc(b2-6)Gal(b1-4)GlcNAc
Summary of the method: as §1

B1: MGL2 (Mus musculus), Q8JZN1 (protein)
chain: MTMRYENFQNLEREEKNQEMRNGDKKGGMESPKFALIPSQSFLWRILSWTHLLLFSLGLSLLLLVVISVIGSQNSQLRRDLGTLRAILDNTTSKIKAEFQSLDSRADNFEKGISSLKVDVEDHRQELQAGRDLSQKVTSLESTLEKREQALKTDLSDLTDHVQQLETDLKALTCQLANLKNNGSEVACCPLHWTEHEGSCYWFSESEKSWPEADKYCRLENSHLVVVNSLEEQNFLQNRLANVLSWMGLTDQNGPWRWVDGTDFDKGFKNWRPLQPDNWHGHMLGGGEDCAHFSYDGRWNDDVCQRHYHWICETELGKASSAHSPQLIASVP
[1]
  glycan array binding signal (z-score): -0.258
[2]
  glycan array binding signal (z-score): -0.205
[3]
  glycan array binding signal (z-score): -0.15
[4]
  glycan array binding signal (z-score): 0.503
[5]
  glycan array binding signal (z-score): -0.199
[6]
  glycan array binding signal (z-score): -0.225
[7]
  glycan array binding signal (z-score): -0.127
[8]
  glycan array binding signal (z-score): -0.167
[9]
  glycan array binding signal (z-score): -0.239
[10]
  glycan array binding signal (z-score): -0.092
[11]
  glycan array binding signal (z-score): -0.194
[12]
  glycan array binding signal (z-score): -0.084
[13]
  glycan array binding signal (z-score): -0.206
[14]
  glycan array binding signal (z-score): -0.209
[15]
  glycan array binding signal (z-score): -0.275
[16]
  glycan array binding signal (z-score): -0.176
[17]
  glycan array binding signal (z-score): -0.184
[18]
  glycan array binding signal (z-score): -0.17
[19]
  glycan array binding signal (z-score): -0.226
[20]
  glycan array binding signal (z-score): -0.23
[21]
  glycan array binding signal (z-score): -0.162
[22]
  glycan array binding signal (z-score): -0.165
[23]
  glycan array binding signal (z-score): -0.247
[24]
  glycan array binding signal (z-score): 0.063
[25]
  glycan array binding signal (z-score): 0.086
[26]
  glycan array binding signal (z-score): -0.199
[27]
  glycan array binding signal (z-score): 0.232
[28]
  glycan array binding signal (z-score): -0.127
[29]
  glycan array binding signal (z-score): -0.142
[30]
  glycan array binding signal (z-score): -0.118
[31]
  glycan array binding signal (z-score): -0.179
[32]
  glycan array binding signal (z-score): -0.174
